# Reference: the supplement of paper PMC3334620
# The full ranking holds about 33,000 sequences; the median of “E-score (-0.5 to 0.5)” is about -0.043, and the highest 2% start at about 0.37. The list shows a part of the results.
# Molecular target: T1, Upc2 (UniProt Q12151)
# T1 sequence: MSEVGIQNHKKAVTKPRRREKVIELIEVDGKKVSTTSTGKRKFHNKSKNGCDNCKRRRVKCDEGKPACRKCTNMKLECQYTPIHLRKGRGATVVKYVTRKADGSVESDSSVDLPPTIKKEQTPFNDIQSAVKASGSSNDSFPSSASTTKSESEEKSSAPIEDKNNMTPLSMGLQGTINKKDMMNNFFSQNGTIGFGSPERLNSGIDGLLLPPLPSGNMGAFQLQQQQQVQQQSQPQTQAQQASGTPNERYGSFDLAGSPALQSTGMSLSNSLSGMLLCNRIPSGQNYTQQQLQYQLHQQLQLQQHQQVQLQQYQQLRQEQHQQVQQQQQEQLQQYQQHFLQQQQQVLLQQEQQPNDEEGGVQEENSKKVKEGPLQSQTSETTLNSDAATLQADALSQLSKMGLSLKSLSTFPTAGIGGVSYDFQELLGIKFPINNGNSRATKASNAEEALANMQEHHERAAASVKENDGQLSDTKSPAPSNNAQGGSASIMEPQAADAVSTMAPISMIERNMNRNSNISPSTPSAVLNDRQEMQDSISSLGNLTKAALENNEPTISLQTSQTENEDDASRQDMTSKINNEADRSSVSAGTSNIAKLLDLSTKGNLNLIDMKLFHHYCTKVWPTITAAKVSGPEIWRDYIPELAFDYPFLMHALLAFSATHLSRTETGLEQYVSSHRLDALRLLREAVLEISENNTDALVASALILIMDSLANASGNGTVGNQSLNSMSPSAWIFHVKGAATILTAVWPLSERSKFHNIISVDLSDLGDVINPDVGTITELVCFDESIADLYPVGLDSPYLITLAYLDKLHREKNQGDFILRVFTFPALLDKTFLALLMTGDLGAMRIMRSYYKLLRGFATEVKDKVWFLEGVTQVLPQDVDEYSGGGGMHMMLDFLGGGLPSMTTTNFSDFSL
# Test: PBM E-score (8-mer binding enrichment) (E-score (-0.5 to 0.5)); higher = stronger / more preferred TF binding; most listed sequences are background and not binding sites
# Conditions: protein concentration: 200 nM; construct: GST-full length
# Procedure, shortened: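 Universal all-10-mer Agilent arrays, double-stranded by primer extension on fresh or once-stripped slides, were probed with about 100-200 nM GST-tagged yeast transcription factors made by PURExpress. Fluorescent anti-GST detected bound protein, and masliner normalised the scans. E-scores from the Universal PBM Analysis Suite were given to each ungapped eight-base word pooled with its reverse complement.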
row,Sequence,PBM E-score
1,CCTAGTGA,-0.174
2,ATTCAGAC,-0.00754
3,CTAAAGGC,0.00207
4,CGTTTTTA,0.251
5,GGGCATAC,0.0895
6,CTCTGTCA,-0.0724
7,ACTCGACA,0.0576
8,CTTTATAA,-0.025
9,ACTGGTAT,0.102
10,ACCGGGTC,-0.0132
11,CTACGATC,0.288
12,ACATTTAC,0.0638
13,CGGCGTAG,0.0555
14,ACAATTGC,-0.0645
15,GGGCGCCA,-0.19
16,CCACCCTA,0.0273
17,CCATTTCG,-0.00075
18,GACTCGGA,-0.00437
19,GGTCTGAC,-0.214
20,CTGTCCAA,-0.101
21,CTTACTTC,0.0271
22,CGAAAGTA,0.0261
23,CACCTGGA,-0.176
24,TCTTGTAA,0.108
25,CTCGGTTA,0.381

row,Sequence,PBM E-score
1,ACGGAAGG,-0.0344
2,CCGATTAG,0.149
3,AACATAAC,0.126
4,ATCCTGGG,-0.0504
5,CCATTTAG,0.0361
6,AGATGCTG,-0.196
7,GCGTGCCC,-0.0635
8,GAAAGGTA,0.00105
9,CTATCAAA,-0.0229
10,CTCCGGGC,-0.0201
11,CCCCGAGC,-0.255
12,TCAAGCCA,-0.083
13,GCAGCTGC,-0.0641
14,TCGGCGCA,-0.179
15,AAAAACCC,-0.12
16,CTAGTGTA,0.0285
17,GATGCTCC,-0.182
18,CCTACGAG,0.341
19,CCTAGAGA,-0.206
20,CAGAGCAA,0.0622
21,CCGGAACC,-0.113
22,CATGACTC,-0.154
23,CTGGTGCA,-0.267
24,GATTATAC,0.243
25,AAGCCAGG,-0.286

row,Sequence,PBM E-score
1,ATCCCCGC,-0.0454
2,CTACTCGC,0.0818
3,TGCTGCAA,-0.0481
4,CCGACCAG,-0.171
5,ATAGGTGA,0.00835
6,AAATCTAT,0.142
7,GCCCATAC,0.0551
8,TCCCCCAA,-0.324
9,TGGCGGAA,-0.216
10,ACCGGAAA,-0.00571
11,GGATTTAA,0.00251
12,CTGTGATC,-0.235
13,ACCGCGCC,-0.0336
14,AGTGAACC,0.0989
15,CACGAAAG,-0.0189
16,GTCTTAAA,0.125
17,CATACGTC,0.215
18,GACTGTCA,-0.185
19,CAAGGGAA,-0.137
20,CTTTAATC,-0.0244
21,CAGAAGTC,-0.174
22,TATAGCAA,0.0967
23,AACCTTGA,-0.252
24,CGCCGGAA,-0.0373
25,ACCGGCCT,-0.0984

row,Sequence,PBM E-score
1,CTGTCCCC,-0.0777
2,GACACCAA,-0.0287
3,GGCGTCCC,-0.0589
4,ATAATCTA,0.0375
5,CGCCCTAA,-0.139
6,CAGCCAGC,-0.282
7,ATAAGACC,0.0321
8,CCCACGGA,-0.0221
9,AGATTAAT,-0.039
10,AAGGGTGT,-0.259
11,ATGGTACG,0.388
12,GGTCTCAC,-0.21
13,AATACGGA,0.259
14,GGCGCCTA,-0.106
15,CTTTGTTC,0.0304
16,AACGAGAG,0.425
17,TAGAGCTA,-0.281
18,CATGATAG,-0.202
19,CAAAGCGA,0.0534
20,CCTTGCTC,-0.0954
21,CGAACTTC,0.119
22,AATTCGTG,-0.0513
23,ATGCACAC,-0.00432
24,ACAAGCAA,-0.0489
25,AAGGACGG,-0.22

row,Sequence,PBM E-score
1,CCGTTCCG,0.323
2,CGATGTAC,0.199
3,CTAAGCGC,0.14
4,CAGCCTGC,-0.225
5,CAGATTAA,0.0152
6,GTCTGAAA,-0.0968
7,AACCGTAA,0.233
8,ACCCCAGA,-0.242
9,AGCTGCCG,-0.151
10,GTCTACAA,0.0292
11,AGACCCAG,-0.32
12,ACCCGCCA,0.0797
13,CTCGGACC,0.19
14,GAATAATC,0.182
15,GCCCCTAA,-0.112
16,AGCACGTA,0.19
17,CAGTGTGG,-0.283
18,CAAACTGC,-0.00883
19,ACGCGTAC,0.313
20,GATACGCC,0.189
21,CGCATTAG,-0.221
22,CTTACGAC,0.406
23,AAAGTCAG,0.0539
24,AAAACAAG,-0.0676
25,CGTGCGAG,0.141

row,Sequence,PBM E-score
1,ACGGGCGC,0.128
2,AAGCGTAT,0.33
3,AATTAACT,0.0834
4,AAGCGCTA,0.0119
5,CAGCCTAC,-0.107
6,CGCGGGCA,-0.061
7,CCTCGCCG,-0.214
8,CTCTACGC,0.0628
9,ATAAAATC,0.00926
10,ACGAGGTG,0.367
11,AGTCACTA,0.0366
12,CCCCCATA,-0.0568
13,GCCCGTTA,0.15
14,CAAGATGC,-0.217
15,ATATGCTG,-0.126
16,GCAATACA,0.0819
17,CAAGTATC,-0.0557
18,ACATCGCA,0.0936
19,CATCAGGC,-0.21
20,GCTTCGTA,0.449
21,ATAGGTTG,-0.168
22,ACCACGCT,-0.0508
23,GAGAGTAA,-0.126
24,ACAATGTA,0.0274
25,TCACATAA,0.036

row,Sequence,PBM E-score
1,ATCGTTAC,0.264
2,GCCCGAGC,-0.199
3,GACCCCAA,-0.0347
4,AGATGTTG,-0.202
5,ATGAGGGA,-0.0902
6,AGTTTAAA,0.11
7,AGGTCGGG,-0.16
8,GCAGAAGC,6e-05
9,GACGCTCA,-0.135
10,ACAGTTAT,-0.0929
11,AGCTAGCA,-0.112
12,AGCCTCTC,-0.241
13,CCACACCG,-0.0993
14,CCTGCGAC,-0.0909
15,CAGCAGCG,-0.0937
16,AATGCAGT,0.0382
17,CCATGTGC,-0.0783
18,AGCCAGGG,-0.0694
19,ACTGGATG,-0.109
20,CGGGCCAG,0.0433
21,CTTGGGGC,-0.245
22,CGTAAGCA,0.149
